Some of the results follow. The full chains were built here from the parent and the listed change. Inactive controls read about 0.05.
B1: TEV protease; numbered along this chain (parent)
chain: MGESLFKGPRDYNPISSSICHLTNESDGHTTSLYGIGFGPFIITNKHLFRRNNGTLVVQSLHGVFKVKDTTTLQQHLVDGRDMIIIRMPKDFPPFPQKLKFREPQREERICLVTTNFQTKSMSSMVSDTSCTFPSGDGIFWKHWIQTKDGQCGSPLVSTRDGFIVGIHSASNFTNTNNYFTSVPKNFMELLTNQEAQQWVSGWRLNADSVLWGGHKVFMVKPEEPFQPVKEATQL

Variants of: B1
Assay: raw area under fraction-flipped curve 0-4 h after induction (AUC4h, not background-subtracted), DNA-recorder readout of cleavage of the substrate (dimensionless); higher = more cleavage of the substrate by the protease variant
Details: temperature: 34 °C; time window: 0-4 h after rhamnose induction
Method: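 In vivo DNA recorder in E. coli TOP10(DE3) ΔrhaA at 34 °C. Each TEVp single-site mutant (parent TEVp 0) is paired with a single-site variant of the 7-mer TEVs (canonical ENLYFQ|S). The substrate sits between flexible linkers in a Bxb1-sfGFP-TEVs-SsrA fusion, so cleavage stabilises Bxb1 and speeds flipping of a recombination array, read by NGS. The value is the raw area under the fraction-flipped curve over 0-4 h after rhamnose induction (AUC4h), with ≥20 reads per time point. It is not background-subtracted; inactive controls average about 0.047.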
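Also: Bxb1 expression induced with 0.2% (w/v) L-rhamnose at OD600 near 0.5, cultures sampled hourly, flipped fraction per protease–substrate barcode pair counted by paired-end Illumina sequencing.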

Row | Variant | area with substrate ENLCFQS | area with substrate ENLDFQS | area with substrate ENLFFQS | area with substrate ENLHFQS | area with substrate ENLKFQS | area with substrate ENLLFQS | area with substrate ENLNFQS | area with substrate ENLPFQS | area with substrate ENLTFQS | area with substrate ENLGFQS | area with substrate ENLIFQS | area with substrate ENLMFQS | area with substrate ENLQFQS | area with substrate ENLVFQS | area with substrate ENLWFQS | area with substrate ENLRFQS | area with substrate ENLSFQS | area with substrate ENLAFQS | area with substrate ENLEFQS
1 | MGESLFKGPRDYNPISSSICHLTNESRGHTTSLYGIGFGPFIITNKHLFRRNNGTLVVQSLHGVFKVKDTTTLQQHLVDGRDMIIIRMPKDFPPFPQKLKFREPQREERICLVTTNFQTKSMSSMVSDTSCTFPSGDGIFWKHWIQTKDGQCGSPLVSTRDGFIVGIHSASNFTNTNNYFTSVPKNFMELLTNQEAQQWVSGWRLNADSVLWGGHKVFMVKPEEPFQPVKEATQL [D27R] | 0.0683 | 0.0588 | 0.074 | 0.0592 | 0.0694 | 0.0551 | 0.0565 | 0.0309 | 0.0735 |  |  |  |  |  |  |  |  |  | 
2 | MGESLFKGPRDYNPISSSICHLTNESDGHATSLYGIGFGPFIITNKHLFRRNNGTLVVQSLHGVFKVKDTTTLQQHLVDGRDMIIIRMPKDFPPFPQKLKFREPQREERICLVTTNFQTKSMSSMVSDTSCTFPSGDGIFWKHWIQTKDGQCGSPLVSTRDGFIVGIHSASNFTNTNNYFTSVPKNFMELLTNQEAQQWVSGWRLNADSVLWGGHKVFMVKPEEPFQPVKEATQL [T30A] | 0.0689 | 0.0645 | 0.0758 | 0.0939 | 0.0917 |  | 0.0651 | 0.071 |  | 0.0701 | 0.0698 | 0.0496 | 0.0605 | 0.0766 | 0.0608 |  |  |  | 
3 | MGESLFEGPRDYNPISSSICHLTNESDGHTTSLYGIGFGPFIITNKHLFRRNNGTLVVQSLHGVFKVKDTTTLQQHLVDGRDMIIIRMPKDFPPFPQKLKFREPQREERICLVTTNFQTKSMSSMVSDTSCTFPSGDGIFWKHWIQTKDGQCGSPLVSTRDGFIVGIHSASNFTNTNNYFTSVPKNFMELLTNQEAQQWVSGWRLNADSVLWGGHKVFMVKPEEPFQPVKEATQL [K7E] | 0.0653 | 0.0678 | 0.114 | 0.0731 |  | 0.0675 |  |  |  | 0.0559 |  | 0.0646 |  |  |  |  |  |  | 
4 | MGESLFIGPRDYNPISSSICHLTNESDGHTTSLYGIGFGPFIITNKHLFRRNNGTLVVQSLHGVFKVKDTTTLQQHLVDGRDMIIIRMPKDFPPFPQKLKFREPQREERICLVTTNFQTKSMSSMVSDTSCTFPSGDGIFWKHWIQTKDGQCGSPLVSTRDGFIVGIHSASNFTNTNNYFTSVPKNFMELLTNQEAQQWVSGWRLNADSVLWGGHKVFMVKPEEPFQPVKEATQL [K7I] | 0.069 |  |  |  | 0.0782 |  | 0.0673 |  |  |  | 0.0784 |  | 0.107 |  | 0.0666 | 0.0675 |  |  | 
5 | MGESLFKGPRDYNPISSSICHLTNESDGHTTSLEGIGFGPFIITNKHLFRRNNGTLVVQSLHGVFKVKDTTTLQQHLVDGRDMIIIRMPKDFPPFPQKLKFREPQREERICLVTTNFQTKSMSSMVSDTSCTFPSGDGIFWKHWIQTKDGQCGSPLVSTRDGFIVGIHSASNFTNTNNYFTSVPKNFMELLTNQEAQQWVSGWRLNADSVLWGGHKVFMVKPEEPFQPVKEATQL [Y34E] | 0.0677 | 0.0661 | 0.0552 |  | 0.0613 |  |  |  |  |  | 0.06 |  |  |  | 0.0711 | 0.0654 | 0.0614 |  | 
6 | MGESLFKGPRDYNPISYSICHLTNESDGHTTSLYGIGFGPFIITNKHLFRRNNGTLVVQSLHGVFKVKDTTTLQQHLVDGRDMIIIRMPKDFPPFPQKLKFREPQREERICLVTTNFQTKSMSSMVSDTSCTFPSGDGIFWKHWIQTKDGQCGSPLVSTRDGFIVGIHSASNFTNTNNYFTSVPKNFMELLTNQEAQQWVSGWRLNADSVLWGGHKVFMVKPEEPFQPVKEATQL [S17Y] | 0.0657 | 0.0671 | 0.0827 | 0.0764 | 0.0805 | 0.0688 | 0.0585 | 0.0651 |  | 0.0662 | 0.0701 | 0.0776 | 0.0699 | 0.0826 | 0.043 | 0.0813 | 0.0651 |  | 
7 | MGESLFKGPRDYNPISSSICHLTNESDGHTTSLYGIGFGPFIITNKHLFRRNNGTLVVQSLHGVFKVKDTTTLQQHLVDGRDMIIIRMPKDFPPFPQKLKFREPQREERICLVTTNFQTKSMSSMVSDTSCTFPSGDGIFWKHWIQTKDGQCGSPLVSTRDGFIVGIHSASNFTNTNNYFTSVPKNFMELLTNQEAQQWVSGWRLNADSVLWGGHKVFMVKPEEPFQPVKEATQS [L235S] | 0.0394 | 0.0657 | 0.0769 |  | 0.107 |  | 0.0621 | 0.0688 |  |  | 0.0889 |  |  |  |  |  | 0.0292 | 0.0637 | 0.0611
8 | MGESLFKGPRDYNPISSSICHLTNESDGHTTSLYGIGFGPFIITNKHLFRRNNGTLVVQSLHGVFKVKDTTTLQQHLVDGRDMIIIRMPKDFPPFPQKLKFREPQREERICLVTTNFQTKSMSSMVSDTSCTFPSGDGIFWKHWIQTKDGQCGSPLVSTRDGFIVGIHSASNFTNTNNYFTSVPKNFMELLTNQEAQQWVSGWRLNADSVLWGGHKVFMVKPEEPFGPVKEATQL [Q227G] | 0.0662 | 0.0537 | 0.0891 | 0.0553 | 0.0933 |  | 0.054 |  |  | 0.0536 |  |  |  |  | 0.0666 | 0.078 | 0.0405 | 0.0502 | 
9 | MGESLFKGPRDYNPISSSICHLTNEMDGHTTSLYGIGFGPFIITNKHLFRRNNGTLVVQSLHGVFKVKDTTTLQQHLVDGRDMIIIRMPKDFPPFPQKLKFREPQREERICLVTTNFQTKSMSSMVSDTSCTFPSGDGIFWKHWIQTKDGQCGSPLVSTRDGFIVGIHSASNFTNTNNYFTSVPKNFMELLTNQEAQQWVSGWRLNADSVLWGGHKVFMVKPEEPFQPVKEATQL [S26M] | 0.0748 | 0.0622 | 0.0726 | 0.0698 | 0.0672 | 0.0612 | 0.0605 | 0.0651 |  | 0.0655 | 0.101 |  | 0.0425 | 0.0738 |  |  |  |  | 0.0662
10 | MGESLFKGPRDYNPISSSICHLTNESDGHTTSLYGIGFGPFIITNKHLFRRNNGTLVVQSLHGVFKVKDTTTLQQHLVDGRDMIIIRMPKDFPPFPQKLKFREPQREERICLVTTNFQTKSMSSMVSDTSCTFPSGDGIFWKHWIQTKDGQCGSPLVSTRDGFIVGIHSASNFTNTNNYFTSVPKNFMELLTNQEAQQWVSGWRLNADSVLWGGHKVFMVKPEEPFQDVKEATQL [P228D] | 0.0752 | 0.0739 | 0.091 |  | 0.0945 |  |  | 0.0667 |  |  |  | 0.0805 |  |  |  | 0.0738 | 0.0552 | 0.0608 | 
11 | MGESLFKGPRDYNPISSSIYHLTNESDGHTTSLYGIGFGPFIITNKHLFRRNNGTLVVQSLHGVFKVKDTTTLQQHLVDGRDMIIIRMPKDFPPFPQKLKFREPQREERICLVTTNFQTKSMSSMVSDTSCTFPSGDGIFWKHWIQTKDGQCGSPLVSTRDGFIVGIHSASNFTNTNNYFTSVPKNFMELLTNQEAQQWVSGWRLNADSVLWGGHKVFMVKPEEPFQPVKEATQL [C20Y] | 0.0452 | 0.051 | 0.0616 | 0.0572 | 0.0763 |  |  | 0.0455 |  |  | 0.0416 |  | 0.0431 | 0.0639 |  |  | 0.0619 |  | 0.0803
